Data as given in PubChem BioAssay AID360 (National Center for Advancing Translational Sciences (NCATS), 2006).
In all, about 48,000 compounds went through this assay and about 550 (1.1%) were called active. Roughly 4% stayed inconclusive and do not appear here. No stated cut-off is given here; in the data, active means potency below about 15 µM; inconclusive means mostly about 16 µM to 33 µM; inactive means weaker than that. The list shows a part of the results.

Target: Lysosomal acid glucosylceramidase (Homo sapiens) (UniProt P04062)
Test: Glucocerebrosidase;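 further: the screen sought inhibitors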
Details: purified enzyme, resorufin glucoside fluorescence (screen aimed at inhibitors), 20 min
How it was run: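 Normal human glucocerebrosidase (0.2 nM final) was assayed with resorufin β-D-glucopyranoside (30 uM final) in 50mM citric acid/KH2PO4, 10mM sodium taurocholate, 0.01% tween-20, pH 5.9. Compounds were titrated; fluorescence (Ex 548, Em 600) read after 20 min at RT.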
Potency means the concentration at half of the fitted maximal effect.

Sequence of UniProt P04062 (P04062 whole entry, looked up): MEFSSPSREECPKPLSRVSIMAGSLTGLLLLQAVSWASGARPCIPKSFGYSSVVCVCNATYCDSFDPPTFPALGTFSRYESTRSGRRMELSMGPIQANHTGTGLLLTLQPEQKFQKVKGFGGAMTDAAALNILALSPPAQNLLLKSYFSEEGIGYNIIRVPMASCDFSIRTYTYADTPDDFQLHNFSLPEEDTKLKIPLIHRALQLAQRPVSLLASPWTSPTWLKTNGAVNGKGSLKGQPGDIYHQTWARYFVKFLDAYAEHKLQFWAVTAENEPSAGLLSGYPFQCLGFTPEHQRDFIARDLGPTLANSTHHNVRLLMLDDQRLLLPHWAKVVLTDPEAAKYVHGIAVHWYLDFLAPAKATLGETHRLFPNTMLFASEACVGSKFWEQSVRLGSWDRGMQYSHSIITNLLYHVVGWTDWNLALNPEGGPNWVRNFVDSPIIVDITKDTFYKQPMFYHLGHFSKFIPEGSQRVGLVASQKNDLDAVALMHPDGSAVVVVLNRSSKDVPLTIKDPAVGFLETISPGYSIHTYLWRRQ

Potency, inactive:
CCCn1c(=S)[nH]c2cc(C(=O)N3CCCC(C(=O)OCC)C3)ccc2c1=O (centres undefined) > 76.9 µM
Cc1cc(C)nc(SCc2nnc(SCC(=O)Nc3ccc(C)c(C)c3)o2)n1 > 76.9 µM
CNC(=O)CSc1nnnn1-c1ccc(C)cc1C > 76.9 µM
CN1CCN(C(=O)c2ccc(C3SCC(=O)N3Cc3ccco3)cc2)CC1 (centres undefined) > 76.9 µM
CCOC(=O)c1[nH]c(=O)[nH]c1CSc1ccccn1 > 76.9 µM
CC(C)NC(=O)Cn1nnc(-c2cccc(NC(=O)c3ccccc3F)c2)n1 > 76.9 µM
COCCNS(=O)(=O)c1ccc(-c2ccc(S(=O)(=O)NCCOC)cc2)cc1 > 76.9 µM
O=C(CSc1nnc2ccccn12)N1CCc2ccccc2C1 > 76.9 µM
CCC1Oc2ccc(C)cc2N(Cc2cccc(C)c2)C1=O (centres undefined) > 76.9 µM
C/C(Cl)=C\Cn1c(N2CCCC2)nc2c1c(=O)[nH]c(=O)n2C > 76.9 µM
CCOC(=O)C1CCN(C(=O)c2cccc(Cl)c2)CC1 > 76.9 µM
COc1ccc(Cl)cc1S(=O)(=O)NCc1cccs1 > 76.9 µM
Cc1ccc(C(C)C)c(OCC(=O)OCc2c(C)noc2C)c1 > 76.9 µM
CC1=Nn2c(nnc2-c2cc(-c3ccccc3)n[nH]2)SC1 > 76.9 µM
Cc1occc1-c1nnc(SCC(=O)N2CCOCC2)n1Cc1ccco1 > 76.9 µM
CC(=O)N1CCC2(CC1)CC(=O)c1cc(OCC(=O)NCc3ccc(C)cc3)ccc1O2 > 76.9 µM
CCOC(=O)C1CCCN(C(=O)c2cc(=O)c3ccccc3o2)C1 (centres undefined) > 76.9 µM
O=C(CSc1nnnn1C1CCCCC1)N1CCCC1 > 76.9 µM
COc1ccc2c(c1)c1nnc(SCC(=O)N3CCCCC3C)nc1n2C (centres undefined) > 76.9 µM
S=c1[nH]ncn1-c1ccccn1 > 76.9 µM
Cn1c(SCC(=O)NCc2ccco2)nc2ccccc2c1=O > 76.9 µM
CC(=O)c1cccc(NC(=O)CN2C(=O)COc3ccc(Cl)cc32)c1 > 76.9 µM
CC(C)(C)C(=O)OCCn1c(=O)c2cc3c(=O)n(CCOC(=O)C(C)(C)C)c(=O)c3cc2c1=O > 76.9 µM
COC(=O)CSc1nnc(CNC(=O)c2cccs2)n1-c1cc(OC)ccc1OC > 76.9 µM
CCSCc1nnc(SCC(=O)Nc2cccc(SC)c2)n1C > 76.9 µM
CCOC(=O)c1c(C)nc2ncccn12 > 76.9 µM
CCN1C(=O)C2C(c3ccccc3F)NC(Cc3ccc(O)cc3)(C(=O)OC)C2C1=O (centres undefined) > 76.9 µM
COc1ccc(S(=O)(=O)N2CCSC2c2ccccc2)cc1 (centres undefined) > 76.9 µM
COc1cccc(OC(=O)CSc2nnc(-c3ccccc3Br)o2)c1 > 76.9 µM
C=CCOC(=O)C1=C(C)NC(=O)NC1c1cn(-c2ccccc2)nc1-c1cccs1 (centres undefined) > 76.9 µM
CCCN1CCN(C(=O)Cn2cccc2C(=O)c2ccccc2)CC1 > 76.9 µM
C=CCOC(=O)C(C#N)c1nc2ccccc2nc1N1CCN(Cc2ccc3c(c2)OCO3)CC1 (centres undefined)
Cc1cccc(-c2noc(CN(C(=O)CCc3ccccc3)C(C)C)n2)c1 > 76.9 µM
COc1ccc2c(c1OC)C(=O)N1c3cccc(Cl)c3C(=O)OC21 (centres undefined) > 76.9 µM
Cc1cc(NC(=O)c2ccc(Cl)cc2)no1 > 76.9 µM
Cc1ccc(CNC(=O)CSc2n[nH]c(N)n2)cc1 > 76.9 µM
CCC(=O)Nc1cccc(-c2nc3ccccc3c(=O)o2)c1 > 76.9 µM
O=C(CSc1c[nH]c2ccccc12)N1CCOCC1 > 76.9 µM
Nc1ccc(C(=O)OCCCc2nc3ccccc3[nH]2)cc1 > 76.9 µM
Cc1ccc(CNc2ccc(N3CCOCC3)cc2)s1 > 76.9 µM
COc1ccc(C(=O)O)cc1S(=O)(=O)Nc1cccc(C)c1 > 76.9 µM
O=C1NCCc2c1[nH]c1c(Cl)ccc(Cl)c21 > 76.9 µM
O=C(CCC1CCCC1)Nc1ccc(Br)cn1 > 76.9 µM
COc1cccc(C(=O)N2CCN(C3CCC(c4ccccc4)CC3)CC2)c1 (centres undefined) > 76.9 µM
C/C(=C1/SC(N2CCCC2)=NC1=O)c1ccc(Br)cc1 > 76.9 µM
COCCn1c(SCC(=O)Nc2sc(C)c(C)c2C#N)nnc1C(C)C > 76.9 µM
O=C(Nc1ccc2nccnc2c1)c1cnccn1 > 76.9 µM
C(=N\c1nccs1)/Nc1nccs1 > 76.9 µM
Cc1ccc(-n2c(SCC(N)=O)nnc2-c2ccccn2)cc1 > 76.9 µM
CSc1nncn1/N=C/c1cc(Cl)ccc1F > 76.9 µM
CC(C)CCNC(=O)C1CCN(C(=O)N(C)C)CC1 > 76.9 µM
COc1ccc(C(CCc2ccc(C)o2)NC(=O)Nc2ccc(OC)cc2OC)cc1 (centres undefined) > 76.9 µM
CC1(C)Cc2c(c(=S)nc(-c3ccccc3)n2CCOCCO)CO1 > 76.9 µM
COc1ccc(-c2nnc(SCC(=O)OC3CCCCC3)o2)cc1OC > 76.9 µM
Cc1ccc(C(=O)Nc2ccccc2C(=O)NC2CCCCC2)cc1S(=O)(=O)N1CCOCC1 > 76.9 µM
COc1cccc(N(C(=O)c2ccco2)C(C(=O)NC2CCCC2)c2ccc(N(C)C)cc2)c1 (centres undefined) > 76.9 µM
Cc1[nH]c2ccccc2c(=O)c1CN(C)Cc1ccccc1 > 76.9 µM
CCOc1ccc2nc(NC(=O)CSc3nc4c(c(=O)n(C)c(=O)n4C)n3CC)sc2c1 > 76.9 µM
Cc1nn(CC(O)COc2ccc3c(c2)CCC3)c(C)c1C (centres undefined) > 76.9 µM
